Results published in patent US20260256936A1, “BIOACTIVE CONJUGATES, PREPARATION METHOD AND USE THEREOF” (priority 2023, published 2026).

Legend:
[1] = ADC hydrophobicity evaluation by HIC chromatography (DAR8 peak retention time); type: physicochemical; settings: HIC retention time of DAR8 peak; later RT = more hydrophobic
Experimental: HIC method: HPLC analysis was carried out under the following measurement conditions: • HPLC system: Waters ACQUITY ARC HPLC System • Detector: measurement wavelength: 280 nm • Column: Tosoh Bioscience 4.6 μm ID×3.5 cm, 2.5 μm butyl-nonporous resin column • Column temperature: 25° C. • Mobile phase A: 1.5 M ammonium sulfate, 50 mM phosphate buffer, pH 7.0 • Mobile phase B: 50 mM phosphate buffer, 25% (V/V) Isopropanol, pH 7.0 • Gradient program: 0% B-0% B (0 min-2 min), 0% B-100% B (2 min-15 min), 100% B-100% B (15 min-16 min), 100% B-0% B (16 min-17 min), 0% B-0% B (17 min-20 min) • Injected sample amount: 20 g
ADC hydrophobicity evaluation: An ADC with a higher hydrophobic property would appear with a later retention time (“RT”) from HIC (hydrophobicity interaction column) chromatography. Results are presented in Tables 2A-2D using the DAR8 peak as a reference.

NCI-H358 cells = experiment: ADC direct cellular killing, NCI-H358 (B7H3-expressing), 3D plates, 6 days; type: cell-based, human; settings: NCI-H358, 3D
Experimental: NCI-H358 (ATCC, CRL-5807). NCI-H358 cells are epithelial-like cells isolated from the bronchiole of a patient with bronchioalveolar carcinoma. NCI-H358 was purchased from ATCC. The base medium for NCI-H358 is ATCC-formulated RPMI-1640 Medium, ATCC 30-2001. To make the complete growth medium, fetal bovine serum to a final concentration of 10% (Gibco, 10099-141C) was added to the base medium. The cell line was grown in a humidified 5% CO2 atmosphere at 37° C., and was regularly tested for the presence of mycoplasma with MycoAlert™ PLUS Mycoplasma Detection Kit (Lonza, LT07-710).
ADC direct killing was assessed in NCI-H358, NCI-H1048, and MDA-MB-453 cancer lines. Cells were seeded (2E3/well) into 3D 96-well plates (Corning: 4520), 80 μl/well, and incubated at 37° C., 5% CO2, overnight. Fresh growth medium was added containing varying concentrations of ADCs, 40 μl/well, and incubated at 37° C., 5% CO2, for 6 days. The cell viability was detected by 3D reagent (Promega, G9683), 100 μl/well. The 3D plates were allowed to incubate at room temperature for 30 minutes to stabilize the luminescent signal. The plates were analyzed with a microplate reader.
ADC direct cellular killing data are presented in FIGS. 1-15 and Tables 5-9 for U937, HL60, and TF1 cells. ADC direct cellular killing data are presented in FIGS. 16-21 and Tables 10 and 11 for NCI-H358, NCI-H1048, and MDA-MB-453 cells.

NCI-H1048 cells = experiment: ADC direct cellular killing, NCI-H1048 (B7H3-expressing), 3D plates, 6 days; type: cell-based, human; settings: NCI-H1048, 3D
Experimental: To make the complete growth medium, fetal bovine serum to a final concentration of 10% (Gibco, 10099-141C) was added to the base medium. The cell line was grown in a humidified 5% CO2 atmosphere at 37° C., and was regularly tested for the presence of mycoplasma with MycoAlert™ PLUS Mycoplasma Detection Kit (Lonza, LT07-710).
The plates were analyzed with a microplate reader.

B1: 3-B (conjugate)
heavy: QVQLVQSGAEVKKPGSSVKVSCKASGYTFTNYVMHWVRQAPGQGLEWMGYINPYNDDVKYNEKFKGRVTITADESTSTAYMELSSLRSEDTAVYYCARWGYYGSPLYYFDYWGQGTLVTVSSASTKGPSVFPLAPSSKSTSGGTAALGCLVKDYFPEPVTVSWNSGALTSGVHTFPAVLQSSGLYSLSSVVTVPSSSLGTQTYICNVNHKPSNTKVDKRV[human IgG1 Fc not printed]
light: EIVLTQSPATLSLSPGERATLSCRASSRLIYMHWYQQKPGQAPRPLIYATSNLASGIPARFSGSGSGTDFTLTISSLEPEDFAVYYCQQWNSNPPTFGQGTKVEIKRTVAAPSVFIFPPSDEQLKSGTASVVCLLNNFYPREAKVQWKVDNALQSGNSQESVTEQDSKDSTYSLSSTLTLSKADYEKHKVYACEVTHQGLSSPVTKSFNRGEC
DAR8 RT [1]: 14.537 min
Emax (%) (NCI-H358 cells): 81.3%
Emax (%) (NCI-H1048 cells): 98.1%
